According to PubChem BioAssay AID1477 (National Center for Advancing Translational Sciences (NCATS), 2009):
Screen size: about 230,000 compounds; fewer than 10 were called active. Inconclusive means that the source gave no clear call. Such entries were picked first, then a sample of the others. Calls follow the shape of the dose curve; as a rule, active = well fitted curve in the direction sought with a large enough effect; inconclusive = small, poorly fitted or top-dose-only effect, or effect the other way, or another doubt; inactive = no such curve, though single readings can be large or run the other way. No potency is given beside an inconclusive call; the fits are too rough.

target: Runt-related transcription factor 1 (Homo sapiens) + Core-binding factor subunit beta (Homo sapiens) (UniProt Q01196+Q13951); assay: qHTS Assay for Compounds Blocking the Interaction Between CBF-beta and RUNX1 for the Treatment of Acute Myeloid Leukemia; details: AlphaScreen CBFb-His/RUNX1-biotin binding, biochemical; series mostly up to 59.8 µM
How it was run: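 Inhibition was taken as any reduction in AlphaScreen signal from the CBF-beta–RUNX1 pair (His and biotin tags, 30 nM each), measured after compound (15 min) and bead (90 min) incubations at room temperature.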

UniProt Q01196, sequence (Q01196 whole entry, looked up): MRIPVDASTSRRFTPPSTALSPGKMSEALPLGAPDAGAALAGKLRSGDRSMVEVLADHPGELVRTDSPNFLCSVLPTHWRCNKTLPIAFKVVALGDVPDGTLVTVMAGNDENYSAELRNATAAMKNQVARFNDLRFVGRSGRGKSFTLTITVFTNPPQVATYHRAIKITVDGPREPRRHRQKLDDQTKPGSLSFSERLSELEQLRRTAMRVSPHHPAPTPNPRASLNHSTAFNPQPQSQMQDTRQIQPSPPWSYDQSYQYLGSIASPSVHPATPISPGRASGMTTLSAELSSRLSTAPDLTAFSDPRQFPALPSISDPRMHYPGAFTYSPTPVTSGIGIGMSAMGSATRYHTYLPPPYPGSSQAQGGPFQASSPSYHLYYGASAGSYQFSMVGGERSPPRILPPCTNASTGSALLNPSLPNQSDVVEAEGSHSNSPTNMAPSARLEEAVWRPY
UniProt Q01196, sequence (Q13951 whole entry, looked up): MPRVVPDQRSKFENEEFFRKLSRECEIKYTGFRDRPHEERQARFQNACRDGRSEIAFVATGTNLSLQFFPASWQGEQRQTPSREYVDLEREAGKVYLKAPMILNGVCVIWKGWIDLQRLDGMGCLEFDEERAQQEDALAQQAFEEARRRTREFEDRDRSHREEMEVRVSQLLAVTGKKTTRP

Structure (SMILES) | Potency
COC(=O)c1cc(=O)n(CCc2ccccc2)c(=Nc2ccc(F)cc2)s1 | inactive
O=C(NC(=S)Nc1ccc2c(c1)OCCO2)c1ccccc1 | inactive
COc1ccc(NC(=O)/C(C#N)=C\c2ccc(N3CCOCC3)o2)cc1 | inconclusive [inhibitor, single point]
S=C1N(c2ccccc2)CN(C2CCCCC2)CN1c1ccccc1 | inactive
COc1cc2oc(=O)cc(-c3ccc(-c4cccc(N)c4)cc3)c2c(OC)c1OC | inconclusive [inhibitor, single point]
Cc1ccccc1NC(=O)c1sc2nc3c(c(-c4ccco4)c2c1N)CCCC3 | inconclusive [activator, partial curve]
Cc1ccc(OCc2nc(C#N)c(N3CCN(Cc4ccccc4)CC3)o2)cc1 | inconclusive [inhibitor, partial curve]
Cc1ccc(Sc2c(CO)c(-c3ccccc3)nn2C)cc1 | inconclusive [activator, partial curve]
CCSc1nnc(-c2ccc(S(=O)(=O)NCc3cccs3)cc2)o1 | inactive
COC(=O)c1cc2ccccn2c2c(C(=O)OC)c(C(=O)OC)cc1-2 | inactive
O=C(Nc1nccs1)c1cc(-c2ccco2)nc2ccccc12 | inconclusive [inhibitor, partial curve]
O=C(CNc1ccc(F)cc1F)NC(=O)NCc1ccco1 | inconclusive [inhibitor, single point]
Nc1ccc(Nc2ccccc2)c(Cl)c1 | inactive
CCCC(=O)OCCNC(=O)c1cc2ccccc2oc1=O | inactive
CCOc1ccc2nc(N=Nc3c(O)[nH]c(=S)[nH]c3=O)sc2c1 | inactive
CNC(=O)[C@H]1O[C@@H](n2cnc3c(NCc4ccc(N)cc4)ncnc32)[C@H](O)[C@H]1O | inactive
CCOC(=O)C1=CN(C(=O)OC(C)(C)C)C(CN2C(=O)COCC2=O)C1 (stereo not given) | inconclusive [activator, single point]
COc1ccccc1C(CCN(Cc1cccs1)C(C)=O)c1ccco1 (stereo not given) | inactive
CC(=O)Nc1ccc2c(c1)N(C(C)=O)c1ccccc1CC2 | inconclusive [activator, single point]
O=C(c1ccc(Br)cc1)c1sc(N2CCOCC2)nc1-c1ccccc1 | inconclusive [activator, single point]
Cc1ccc(Oc2ccc3c(c2)C(=O)N(c2ccc(S(=O)(=O)Nc4nccs4)cc2)C3=O)cc1 | inconclusive [inhibitor, single point]
CCN(C/C=C/C#CC(C)(C)C)Cc1cccc(OCc2cc(-c3ccsc3)cs2)c1 | inactive
O=C(NCC1CCCO1)c1ccc(COc2ccc(Br)cc2)cc1 (stereo not given) | inactive
CC(=O)OCC1=C(C(=O)O)N2C(=O)C(NC(=O)CCCC(N)C(=O)O)C2SC1 (stereo not given) | inconclusive [inhibitor, single point]
CC(C)(C)NC(=O)NC(=O)CSc1nncs1 | inactive

Structure (SMILES) | Potency
O=C(CN1C(=O)C2C3C=CC(C3)C2C1=O)OCC(=O)c1ccccc1 (stereo not given) | inconclusive [activator, single point]
CCOC(=O)c1cc2cc3ccccc3cc2[nH]1 | inconclusive [activator, partial curve]
CC(C)CN(C(=O)c1ccco1)c1nc2ccccc2s1 | inconclusive [activator, single point]
N#C/C(=C\c1ccc(O)c(O)c1)C(=O)Nc1ccccc1 | inconclusive [inhibitor, partial curve]
C=CCn1c(SCC(=O)NCCOC)nc2scc(-c3ccco3)c2c1=O | inactive
CN(Cc1ccccc1)c1oc(-c2ccco2)nc1C#N | inconclusive [inhibitor, single point]
CCN(CC)c1ccc2cc(-c3nc4ccccc4n3C)c(=O)oc2c1 | inactive
Cc1c(C(=O)N2CCc3ccccc32)oc2ccccc12 | inconclusive [activator, single point]
CCc1c2c(nc3ccc4c(c13)OCCO4)-c1nc3ccccc3c(=O)n1C2 | inconclusive [activator, single point]
CC(C)OCCCN1C=C2C(=O)C(C)(OC(=O)CCc3ccccc3)C(=O)C=C2C=C1c1ccc(C#N)cc1 (stereo not given) | inactive
O=C(Nc1ccc(-c2nc3ccc(NC(=O)c4cccs4)cc3[nH]2)cc1)c1cccs1 | inconclusive [activator, full curve]
COc1ccc(OC)c(NC(=O)c2cc(S(=O)(=O)NCc3ccco3)ccc2F)c1 | inactive
NS(=O)(=O)c1ccc(CCNc2ncnc3sccc23)cc1 | inactive
N/C(=N\OC(=O)Cc1ccccc1)c1ccccc1Cl | inconclusive [activator, partial curve]
CC(C)c1nnc(NC(=O)c2sc3ccccc3c2Cl)s1 | inactive
O=C(CSc1nnc(CNc2cccc(C(F)(F)F)c2)n1Cc1ccco1)NCc1ccco1 | inconclusive [inhibitor, partial curve, poor fit]
O=C(NCc1ccc(Cl)cc1)c1ccccc1Oc1ccccc1 | inconclusive [activator, partial curve]
CCOC(=O)N1CCN(C(=O)CCl)CC1 | inactive
CNc1cc2c(Nc3cccc(Br)c3)ncnc2cn1 | inconclusive [activator, partial curve]
O=C1C(c2ccccc2)=C(N2CC2)c2ccccc21 | inconclusive [inhibitor, single point]
COc1ccc(CN2CNc3nc4ccccc4n3C2)cc1 | inactive
O=C1NC(=O)C(c2ccccc2[N+](=O)[O-])=C1Nc1ccc(O)c(Cl)c1 | inconclusive [inhibitor, partial curve]
CCOC(=O)N1CCN(c2cc(C)c(C(C)=O)cc2F)CC1 | inactive
O=C1c2ccccc2C(=O)N1CC#CCN1CCN(C(c2ccccc2)c2ccccc2)CC1 | inactive
C(=C\c1ccccc1)/CSc1nnc(-c2cnccn2)n1Cc1ccco1 | inconclusive [inhibitor, single point]

Structure (SMILES) | Potency
COc1ccc(CN2C(=O)c3cccnc3C2O)cc1 (stereo not given) | inactive
CN(C)C1C(=O)C(C(N)=O)=C(O)[C@@]2(O)C(=O)C3=C(O)c4c(O)ccc(Cl)c4[C@@H](O)C3C[C@@H]12 (stereo not given in full) | inactive
CCn1nc(NC(=O)c2cccs2)c2cc3ccccc3nc21 | inconclusive [activator, partial curve]
CCOC(=O)c1cnc(-n2nc(C)cc2C)nc1NCCc1ccccc1 | inconclusive [inhibitor, partial curve]
O=C(/C=C/c1ccco1)Nc1cc(Cl)ccc1C(=O)O | inactive
COc1cc(NC(=O)c2cccc(Cl)c2)c(OC)cc1NC(=O)CN1CCCCC1 | inactive
COc1ccc(CNC(=O)c2c(N)n(CCCN3CCOCC3)c3nc4ccccc4nc23)cc1 | inconclusive [activator, partial curve]
COC(=O)c1cc(NC(=O)c2c(Cl)cnn2C)cc(C(=O)OC)c1 | inactive
Cc1ccc(-n2c(=O)[nH]c3c(oc4ccccc43)c2=O)cc1 | inconclusive [inhibitor, single point]
CC1(C)Cc2c(sc(NC(=O)COc3cccc4ccccc34)c2C#N)C(C)(C)N1 | inconclusive [activator, single point]
Cc1cccc(OCCN2C(=O)c3ccccc3C2=O)c1 | inconclusive [activator, single point]
O=C(N/N=C\c1ccccn1)C1COc2cc3ccccc3cc2O1 (stereo not given) | inconclusive [inhibitor, single point]
C=CCCN(C(C(=O)OC)C(C)C)S(=O)(=O)c1ccccc1Br (stereo not given) | inconclusive [activator, partial curve]
O=[N+]([O-])c1cccc(-n2cccc2/C=N/Nc2nc(N3CCCCC3)nc(N3CCCCC3)n2)c1 | inconclusive [inhibitor, partial curve]
c1ccc(CN=C2NN=C(c3ccccc3)CS2)cc1 | inconclusive [inhibitor, single point]
CCCn1c(C)cc(C(=O)COC(=O)c2ccc(Cl)c(S(=O)(=O)N3CCCC3)c2)c1C | inconclusive [inhibitor, single point]
CCOc1cc(C=O)ccc1OCCSc1ccc(C)cc1 | inconclusive [activator, partial curve]
O=C(c1ccncc1)N1C2C=CC(C2)C1(C(F)(F)F)C(F)(F)F (stereo not given) | inconclusive [activator, full curve, poor fit]
C/C=C/Cn1c(SC)nc2c1c(=O)[nH]c(=O)n2C | inactive
N/C(Cc1ccc(Cl)cc1Cl)=N\OC(=O)Cc1ccccc1 | inconclusive [activator, single point]
Cc1ccc2c(c1Cl)NC(C(=O)O)C1CC(Sc3ccccc3[N+](=O)[O-])C(Cl)C21 (stereo not given) | inconclusive [inhibitor, partial curve]
CCC(=O)c1ccc(OCCSc2ncccn2)cc1 | inactive
ClP(Cl)(Cl)(Cl)Cl | inactive
CN1/C(=C\C=C2/SC(=S)NC2=O)C(C)(C)c2ccccc21 | inconclusive [inhibitor, partial curve]
Cc1ccc(N2NC(=O)/C(=C\c3cc4c(cc3[N+](=O)[O-])OCO4)C2=O)cc1C | inconclusive [inhibitor, single point]
